{
  "source": "the supplement of paper PMC3334620",
  "note": "Over roughly 33,000 sequences, “E-score (-0.5 to 0.5)” has its median near -0.016; the highest 2% begin near 0.31. The list shows a part of the results.",
  "data": [
    {"biological_target": "Cst6 (UniProt P40535)", "assay": "PBM E-score (8-mer binding enrichment) (E-score (-0.5 to 0.5)); higher = stronger / more preferred TF binding; most listed sequences are background and not binding sites", "conditions": "protein concentration: 200 nM; construct: GST-DNA-binding domain", "summary_of_the_method": "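For each ungapped eight-base word taken together with its reverse complement, the Universal PBM Analysis Suite assigned an E-score. Binding data came from GST-tagged yeast transcription factors, applied at about 100-200 nM, on universal all-10-mer Agilent arrays made double-stranded by primer extension. Fluorescent anti-GST marked bound protein, and scans were normalised with masliner.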", "values": [
      {"sequence": "CCCCCTCC", "PBM E-score": -0.268},
      {"sequence": "GTGAGGCA", "PBM E-score": 0.053},
      {"sequence": "CTAAGGAA", "PBM E-score": 0.0254},
      {"sequence": "ACACATGG", "PBM E-score": -0.0272},
      {"sequence": "AAACTCGA", "PBM E-score": -0.0663},
      {"sequence": "CTGCTCGA", "PBM E-score": -0.185},
      {"sequence": "ACCATATG", "PBM E-score": -0.0614},
      {"sequence": "TAGCCCCA", "PBM E-score": -0.172},
      {"sequence": "CAGAAGAC", "PBM E-score": -0.0991},
      {"sequence": "CGCGTGCC", "PBM E-score": 0.00965},
      {"sequence": "AGGTCCAG", "PBM E-score": -0.0532},
      {"sequence": "CTTTGCTA", "PBM E-score": 0.0728},
      {"sequence": "GCGTTTAC", "PBM E-score": -0.00768},
      {"sequence": "CGCCGTAA", "PBM E-score": 0.189},
      {"sequence": "AAGTCCCT", "PBM E-score": -0.325},
      {"sequence": "TCCCCTCA", "PBM E-score": -0.0437},
      {"sequence": "GGAGAAGA", "PBM E-score": -0.11},
      {"sequence": "CATTACTC", "PBM E-score": 0.271},
      {"sequence": "AGGAGCAG", "PBM E-score": -0.292},
      {"sequence": "GTAATGAA", "PBM E-score": 0.268},
      {"sequence": "AAACCATT", "PBM E-score": 0.105},
      {"sequence": "GCTTAAAC", "PBM E-score": -0.0762},
      {"sequence": "CCGCATAG", "PBM E-score": 0.0013},
      {"sequence": "CTCGCCAA", "PBM E-score": -0.153},
      {"sequence": "ACCATGTA", "PBM E-score": 0.066},
      {"sequence": "ATTTGGTG", "PBM E-score": 0.107},
      {"sequence": "ATCACCGG", "PBM E-score": 0.0668},
      {"sequence": "ATTCCGTA", "PBM E-score": 0.105},
      {"sequence": "CCTGAGTC", "PBM E-score": -0.211},
      {"sequence": "GAGAACGC", "PBM E-score": -0.123},
      {"sequence": "ATGTGCCC", "PBM E-score": 0.0394},
      {"sequence": "TAAAGGAA", "PBM E-score": -0.0105},
      {"sequence": "CGTAGACC", "PBM E-score": -0.205},
      {"sequence": "CGCGTACA", "PBM E-score": -0.0415},
      {"sequence": "AGTGCGTC", "PBM E-score": 0.104},
      {"sequence": "GACCATAA", "PBM E-score": -0.0622},
      {"sequence": "ACAGTTAC", "PBM E-score": 0.13},
      {"sequence": "AACCACGC", "PBM E-score": -0.0201},
      {"sequence": "CTATGGTA", "PBM E-score": -0.0179},
      {"sequence": "ACAATATC", "PBM E-score": 0.218},
      {"sequence": "CGGTCGGA", "PBM E-score": -0.218},
      {"sequence": "GCTCACGA", "PBM E-score": -0.018},
      {"sequence": "GATTGTCC", "PBM E-score": -0.11},
      {"sequence": "CCGCCGGA", "PBM E-score": -0.149},
      {"sequence": "AACCAAGC", "PBM E-score": -0.127},
      {"sequence": "ATGCTGTC", "PBM E-score": 0.214},
      {"sequence": "ATGCGTGA", "PBM E-score": 0.109},
      {"sequence": "AGAGCTGC", "PBM E-score": -0.225},
      {"sequence": "AGTATAGC", "PBM E-score": -0.0254},
      {"sequence": "GATAATCC", "PBM E-score": -0.206},
      {"sequence": "AAGGTAGC", "PBM E-score": -0.198},
      {"sequence": "CCTGCACG", "PBM E-score": 0.0307},
      {"sequence": "ATGCTACA", "PBM E-score": -0.108},
      {"sequence": "CTATTGAC", "PBM E-score": 0.201},
      {"sequence": "CGTAAGAA", "PBM E-score": 0.268},
      {"sequence": "ATAAGCCA", "PBM E-score": 0.0242},
      {"sequence": "ACAGGTGG", "PBM E-score": -0.143},
      {"sequence": "CGCCCACA", "PBM E-score": 0.122},
      {"sequence": "AGCGTTCG", "PBM E-score": -0.112},
      {"sequence": "ATAGGGCG", "PBM E-score": 0.0365},
      {"sequence": "CAAGAAGC", "PBM E-score": 0.151},
      {"sequence": "AGGCCTCA", "PBM E-score": -0.181},
      {"sequence": "AGTAAACA", "PBM E-score": 0.117},
      {"sequence": "GTCGTCTA", "PBM E-score": -0.169},
      {"sequence": "TCCCTCGA", "PBM E-score": -0.205},
      {"sequence": "CGAACGCG", "PBM E-score": 0.0513},
      {"sequence": "GCAACTAA", "PBM E-score": 0.24},
      {"sequence": "CGTTTCGC", "PBM E-score": 0.148},
      {"sequence": "AGGGGACT", "PBM E-score": -0.265},
      {"sequence": "GTGCGCAA", "PBM E-score": -0.0799},
      {"sequence": "ACCTTTGG", "PBM E-score": -0.247},
      {"sequence": "GAGTTAGC", "PBM E-score": -0.00274},
      {"sequence": "GCCCCGCC", "PBM E-score": 0.00278},
      {"sequence": "CCTTCATA", "PBM E-score": -0.00993},
      {"sequence": "ACTAACGA", "PBM E-score": 0.15},
      {"sequence": "CGTCGTGA", "PBM E-score": -0.0311},
      {"sequence": "GTCTCCAA", "PBM E-score": -0.00606},
      {"sequence": "CCGACGTA", "PBM E-score": 0.0226},
      {"sequence": "GTACTAAA", "PBM E-score": 0.168},
      {"sequence": "CCTCCTAC", "PBM E-score": -0.178},
      {"sequence": "ATTTTTGG", "PBM E-score": -0.0105},
      {"sequence": "ACTAGTGC", "PBM E-score": -0.145},
      {"sequence": "ACACTAAC", "PBM E-score": 0.0573},
      {"sequence": "CACACCCA", "PBM E-score": -0.00542},
      {"sequence": "CGATAGAC", "PBM E-score": 0.018},
      {"sequence": "CTTACTAC", "PBM E-score": 0.119},
      {"sequence": "ATCGCCCC", "PBM E-score": -0.174},
      {"sequence": "GGAGGGAC", "PBM E-score": -0.195},
      {"sequence": "CAGGACTG", "PBM E-score": -0.0253},
      {"sequence": "CCCCGGAC", "PBM E-score": -0.222},
      {"sequence": "CACCCGGA", "PBM E-score": -0.141},
      {"sequence": "CTTACAGC", "PBM E-score": 0.116},
      {"sequence": "CCACTCAG", "PBM E-score": -0.159},
      {"sequence": "CAACGGAG", "PBM E-score": -0.151},
      {"sequence": "CTTCATGA", "PBM E-score": 0.0994},
      {"sequence": "ATATGACC", "PBM E-score": 0.108},
      {"sequence": "AGCCCGCC", "PBM E-score": -0.115},
      {"sequence": "GAACGCTC", "PBM E-score": -0.221},
      {"sequence": "AGCAATCA", "PBM E-score": 0.13},
      {"sequence": "ACGCACCC", "PBM E-score": -0.108},
      {"sequence": "CTCTGTAC", "PBM E-score": -0.195},
      {"sequence": "ATCAGAAT", "PBM E-score": 0.168},
      {"sequence": "CTACGTTC", "PBM E-score": -0.0655},
      {"sequence": "AGGCAGGG", "PBM E-score": -0.156},
      {"sequence": "AGGAGAGG", "PBM E-score": -0.245},
      {"sequence": "CAGCGAGC", "PBM E-score": 0.0253},
      {"sequence": "ATAGGAAT", "PBM E-score": 0.0669},
      {"sequence": "GAAATACC", "PBM E-score": -0.0294},
      {"sequence": "GAAGCCCC", "PBM E-score": -0.32}
    ]}
  ]
}
